{"source": "PubChem BioAssay AID485344", "about": "(National Center for Advancing Translational Sciences (NCATS), 2010)", "note": "The whole screen tested about 340,000 compounds, of which about 6,900 (2%) were called active. Cut-off read from the data, not from the text of the source: active = inhibition above about 30%; inactive = below that, where a call was filed. The entries are a selection whose mix differs from that of the whole data set. The source gives no active or inactive call for entries shown without one."}
{"target": "D(2) dopamine receptor (Homo sapiens) (UniProt P14416)", "sequence (P14416 whole entry, looked up)": "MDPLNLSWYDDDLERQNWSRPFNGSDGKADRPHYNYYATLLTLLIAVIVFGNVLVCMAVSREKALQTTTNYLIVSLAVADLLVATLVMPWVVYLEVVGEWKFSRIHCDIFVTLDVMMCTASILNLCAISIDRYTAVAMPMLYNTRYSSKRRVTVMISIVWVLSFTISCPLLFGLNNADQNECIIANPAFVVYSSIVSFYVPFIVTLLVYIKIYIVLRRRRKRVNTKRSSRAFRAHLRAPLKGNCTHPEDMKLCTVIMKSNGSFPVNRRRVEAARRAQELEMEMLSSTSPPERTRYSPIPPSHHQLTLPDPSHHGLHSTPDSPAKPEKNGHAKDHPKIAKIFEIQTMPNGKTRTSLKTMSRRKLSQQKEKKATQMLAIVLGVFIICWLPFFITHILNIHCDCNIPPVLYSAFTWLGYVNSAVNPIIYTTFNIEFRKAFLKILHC", "assay": "HTS Assay for Allosteric Antagonists of the Human D2 Dopamine Receptor: Primary Screen for Antagonists; note: 0% is about no effect", "details": "HEK293 TREx D2 cells, calcium flux, dopamine EC80; at 10 µM; stronger effect = higher value", "outline": "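Inhibition of EC80 dopamine-driven calcium flux, recorded kinetically, defines activity here; cells are a tetracycline-induced HEK293 T-REx line expressing force-coupled D2.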"}
{"smiles": "COc1cc(NC(=O)NCC2CCN(Cc3ccccc3Cl)CC2)cc(OC)c1OC", "inhibition": "-6.46%"}
{"smiles": "CSc1ccccc1NC(=O)Nc1ccc(Cl)cc1", "inhibition": "active: 31.2%"}
{"smiles": "Cc1ccc(C)c(NC(=O)Cn2nnc(C(=O)NCc3ccccc3Cl)c2N)c1", "inhibition": "-26.9%"}
{"smiles": "Fc1ccc(-n2ncc3c(NCCCn4ccnc4)ncnc32)cc1", "inhibition": "-3.29%"}
{"smiles": "COc1cccc(C2NC(=O)c3n[nH]c(-c4cccs4)c32)c1", "note": "(configuration not stated)", "inhibition": "10.7%"}
{"smiles": "COc1ccc(Br)cc1CNC(=O)c1cnc2sc(N3CCCC3)nn2c1=O", "inhibition": "-1.51%"}
{"smiles": "CN1CCN(C(CNC(=O)c2ccccc2F)c2ccc3c(c2)OCO3)CC1", "note": "(configuration not stated)", "inhibition": "-1.03%"}
{"smiles": "O=C(Cn1c(=O)nc(-c2ccccc2)c2ccccc21)NCCc1ccc(Cl)cc1", "inhibition": "0.812%"}
{"smiles": "COc1ccc(C(=O)N(Cc2cc(OC)c(OC)c(OC)c2)c2ccccn2)cc1", "inhibition": "-3.02%"}
{"smiles": "Cc1ccc(Cl)cc1NS(=O)(=O)c1ccc2c(c1)NC(=O)CCS2", "inhibition": "-1.28%"}
{"smiles": "O=C(c1ccccc1)N1CCC(CC2CC(c3cccc(Br)c3)=NO2)(C(=O)NCC2CCCCC2)CC1", "note": "(configuration not stated)", "inhibition": "active: 30.7%"}
{"smiles": "O=C(O)c1ccc(N/N=C/c2ccnc3ccccc23)cc1", "inhibition": "active: 39.9%"}
{"smiles": "COc1ccc(OC)c(CCNC(=O)CCc2cn(Cc3cc(C)ccc3C)c3ccccc23)c1", "inhibition": "16.9%"}
{"smiles": "Cc1ccc(-n2ncc(C(=O)NCc3cccs3)c2C2CCN(C(=O)OC(C)(C)C)CC2)cc1", "inhibition": "-3.9%"}
{"smiles": "Clc1ccc2c(c1)C(N1CCNCC1)=Nc1ccccc1O2", "inhibition": "active: 75.9%"}
{"smiles": "Cc1ccc(CNC(=O)CN2C(=O)CCn3nc(-c4ccccc4)cc32)cc1", "inhibition": "11.8%"}
{"smiles": "COc1ccccc1NC(=O)C(C)Sc1nnc2ccc3ccccc3n12", "note": "(configuration not stated)", "inhibition": "-5.28%"}
{"smiles": "CCc1cccc2c(-c3ccccc3)nc(SCC(=O)Nc3ccccc3OC)nc12", "inhibition": "9.18%"}
{"smiles": "CCCCOc1ccc(C(=O)NCCc2csc(-c3cccc(F)c3)n2)cc1", "inhibition": "-19.7%"}
{"smiles": "Cc1cccc(N2CCN(C(=O)C3CCCN(S(=O)(=O)c4ccc5c(c4)oc(=O)n5C)C3)CC2)c1C", "note": "(configuration not stated)", "inhibition": "0.859%"}
{"smiles": "COc1ccc(C(=O)C[n+]2cccc(C)c2C)cc1[N+](=O)[O-]", "inhibition": "active: 58.6%"}
{"smiles": "Cc1oc2ccc(O)c(CN3CCCC3)c2c1C(=O)Nc1ccccc1", "inhibition": "-6.89%"}
{"smiles": "c1ccc(CN2CCN(c3nc4ccccc4n4cnnc34)CC2)cc1", "inhibition": "active: 67.8%"}
{"smiles": "Cc1ccc(CNC(=O)c2ccc3c(c2)c(C)c(C)n3Cc2ccccc2)o1", "inhibition": "9.2%"}
{"smiles": "O=C(COc1ccccc1Cl)OCc1cc(=O)n2nc(C3CCCCC3)sc2n1", "inhibition": "-2.3%"}
{"smiles": "CN(C)CCCNc1oc(-c2ccccc2Cl)nc1S(=O)(=O)c1ccc(F)cc1", "inhibition": "active: 34.1%"}
{"smiles": "CCn1ccc2cc(S(=O)(=O)N3CCC(C(=O)NCCc4ccccc4Cl)CC3)ccc21", "inhibition": "-5.2%"}
{"smiles": "CC1CN(CCCOc2ccccc2-c2ccccc2)CC(C)O1", "note": "(configuration not stated)", "inhibition": "active: 49.7%"}
{"smiles": "Cc1cccc(C(=O)Nc2ccc(-c3nc4ncccc4o3)cc2C)c1", "inhibition": "-19.9%"}
{"smiles": "CC(C)OCCCNC(=O)c1cn(C)c2ccc(S(=O)(=O)N3CCCCCC3)cc2c1=O", "inhibition": "14.1%"}
{"smiles": "CCc1ccc(C(=O)c2cnc3ccc(F)cc3c2S(=O)(=O)c2ccccc2)cc1", "inhibition": "-2.04%"}
{"smiles": "CCOC(=O)C1C(=O)C=C(/C=C/c2ccc(N(C)C)cc2)CC1c1ccccc1", "note": "(configuration not stated)", "inhibition": "active: 33.3%"}
{"smiles": "Cc1cccc(S(=O)(=O)c2cn(Cc3ccccc3)c3cc(N4CCOCC4)c(F)cc3c2=O)c1", "inhibition": "-4.93%"}
{"smiles": "Cc1c2cnn(CC(=O)NCC(C)c3ccccc3)c(=O)c2c(C)n1Cc1cccc(Cl)c1", "note": "(configuration not stated)", "inhibition": "-7.63%"}
{"smiles": "COc1ccccc1Cn1cc(C(=O)c2ccc(Cl)cc2)c(=O)c2ccccc21", "inhibition": "18.5%"}
{"smiles": "CC1Cc2cc(S(=O)(=O)NCCc3ccc(Cl)cc3)ccc2N1C(=O)C1CCC1", "note": "(configuration not stated)", "inhibition": "7.98%"}
{"smiles": "CCc1ccccc1NC(=O)C1CCN(S(=O)(=O)c2ccccc2)CC1", "inhibition": "-26.3%"}
{"smiles": "CCOC(=O)C1CCN(C(=O)c2cc(S(=O)(=O)N3CCCCCC3)ccc2OC)CC1", "inhibition": "active: 37.9%"}
{"smiles": "COc1ccc(CNC(=O)C(C)Sc2nc(-c3ccccc3)cc(C(F)(F)F)n2)cc1", "note": "(configuration not stated)", "inhibition": "0.296%"}
{"smiles": "COc1ccc(OCC(=O)N2CCC(c3nc4ccccc4s3)CC2)cc1", "inhibition": "-6.78%"}
{"smiles": "CCCCOc1ccc(C(=O)Nc2ccc3oc(-c4cccnc4)nc3c2)cc1", "inhibition": "9.67%"}
{"smiles": "CCOc1cc(C(=O)NCc2ccc3c(c2)CCN3C(=O)c2ccc(F)cc2)cc(OCC)c1OCC", "inhibition": "-10.1%"}
{"smiles": "O=C(NC1CCCC1)c1ccc(CSc2nc3ccncc3n2Cc2cccc(F)c2)cc1", "inhibition": "8.41%"}
{"smiles": "CCOC(=O)CSC1=Nc2ccccc2C2=NC(CCC(=O)NCc3ccc(F)cc3)C(=O)N12", "note": "(configuration not stated)", "inhibition": "0.142%"}
{"smiles": "O=C(NCc1cccc(F)c1)C1CCCN(C(=O)N2CCOc3ccccc32)C1", "note": "(configuration not stated)", "inhibition": "5.83%"}
{"smiles": "COc1ccccc1C1CCN(Cc2cccc(C(=O)N3CCC(O)CC3)c2)CC1", "inhibition": "active: 75.5%"}
{"smiles": "Cc1ccc(C)c(NC(=O)C2CCCN(c3nc4ccccc4s3)C2)c1", "note": "(configuration not stated)", "inhibition": "-4.7%"}
{"smiles": "CC1CN(C(=O)N2CCC(C(=O)NCc3cccs3)CC2)c2cc(Cl)ccc2O1", "note": "(configuration not stated)", "inhibition": "7.32%"}
{"smiles": "CCc1ccc(CNC(=O)C(C)n2ccc3cc(S(=O)(=O)N4CCCCCC4)ccc32)cc1", "note": "(configuration not stated)", "inhibition": "-1.93%"}
{"smiles": "Cc1cccc(NC(=O)CCS(=O)(=O)c2cccc3nsnc23)c1C", "inhibition": "-6.78%"}
{"smiles": "COc1cccc(C(=O)NCCc2csc(-c3ccc(Cl)cc3)n2)c1", "inhibition": "-0.138%"}
{"smiles": "Cc1ccc(NC(=O)C2CCN(S(=O)(=O)c3ccc4[nH]c5c(c4c3)CCCCC5)CC2)cc1", "inhibition": "-0.686%"}
{"smiles": "COc1ccccc1N1CCN(c2ncnc3onc(-c4ccc(F)cc4)c23)CC1", "inhibition": "19.2%"}
{"smiles": "COc1ccc(OC)c(NC(=O)c2c(N3CCCC3=O)c3cc(OC)ccc3n2C)c1", "inhibition": "11%"}
{"smiles": "Cc1nc2nncn2c(Nc2ccccc2)c1C", "inhibition": "-11.9%"}
{"smiles": "CCc1nn2c(=O)cc(COC(=O)c3cccc(NC(=O)c4cccs4)c3)nc2s1", "inhibition": "4.12%"}
{"smiles": "CCOC(=O)c1c(-c2ccccc2)csc1NC(=O)c1cc(=O)c2ccc(C)cc2o1", "inhibition": "0.394%"}
{"smiles": "COCCNC(=O)Nc1cc(C(=O)NCc2ccc(C(C)C)cc2)ccc1N1CCCC1", "inhibition": "2.36%"}
{"smiles": "COc1cc(C2NC(=O)c3c(sc4c3CCN(C)C4)N2)cc(Br)c1OC(=O)c1ccc(C)cc1", "note": "(configuration not stated)", "inhibition": "3.55%"}
{"smiles": "Cc1ccccc1-n1nc(CO)c(C(=O)NCc2cccnc2)n1", "inhibition": "-21.8%"}
{"smiles": "CCc1cccc(C)c1NC(=O)Cn1cnc2c1c(=O)n(C)c(=O)n2C", "inhibition": "4.4%"}
{"smiles": "COc1ccc(CCNC(=O)CSc2nc3ccccc3o2)cc1", "inhibition": "active: 39.2%"}
